Hit rate of the full screen: of about 44,000 compounds, about 340 (0.77%) were called active. Roughly 5% stayed inconclusive and do not appear here. Calls come from the whole dose curve; as a rule, active = well fitted inhibition curve with a large enough effect; inconclusive = small, poorly fitted or top-dose-only effect; inactive = flat fitted curve, though single readings scatter. This is one part of the list.
Assay: Acumen qHTS Assay for Inhibitors of the mTORC1 Signaling Pathway in MEF (Tsc2-/-, p53-/-) Cells: Sytravon;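 note: plate controls were DMSO for no effect and rapamycin for full effect; nearly all actives have a fitted effect of over 50% in size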
Settings: phospho-rpS6 immunofluorescence/PI, 24 h; series mostly up to 38.3 µM; activity change, negative = inhibition: at the top concentration
How it was run: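 Immunofluorescence of rpS6 phosphorylation in Tsc2-/-, p53-/- MEFs after 24 h compound exposure, normalized to propidium iodide signal. Activity is expressed as % positive cells, thresholded with 7.5 nM rapamycin.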

| SMILES | activity change, negative = inhibition |
| --- | --- |
| CC(=O)Nc1ccc(NS(=O)(=O)c2cc3c4c(c2)CC(=O)N4CCC3)cc1 | inactive: -2.96% |
| COc1cc(C(=O)NCCS(=O)(=O)N2CCN(c3ccccc3)CC2)cc(OC)c1OC | inactive: -2.69% |
| COc1ccc(-c2cc3nc(C)c(CCC(=O)N4CCN(c5cc(C)ccc5C)CC4)c(C)n3n2)c(OC)c1 | inactive: -5.31% |
| Cn1cc(S(=O)(=O)c2ccc(Cl)cc2)c(=O)c2cc(F)c(N3CCOCC3)cc21 | inactive: -3.11% |
| CCOc1ccc(NC(=O)CN2CCN(CC(=O)Nc3ccc(OC)cc3)CC2)cc1 | inactive: -0.401% |
| COc1ccccc1/C=C/c1nc(C#N)c(N2CCN(c3ccccc3)CC2)o1 | inactive: -1.77% |
| COc1ccc(N2CCN(S(=O)(=O)CCNC(=O)c3ccc(OC(C)C)cc3)CC2)cc1 | inactive: 1.52% |
| Cc1ccc(Nc2c(-c3ccccc3O)nc3cc(C)ccn23)cc1 | inactive: -17.5% |
| CN(C(=O)CSc1nc2ccc(NC(=O)COc3ccccc3Cl)cc2s1)c1ccccc1 | inactive: -7.36% |
| COc1ccc(-c2cc(C(F)(F)F)nc(NCCc3ccccc3)n2)cc1 | inactive: 0% |
| COC(=O)c1c(SCC(=O)Nc2cc(F)ccc2F)[nH]c2ccc(C)cc2c1=O | inactive: 2.34% |
| O=C(NCCc1ccccc1)c1cc2sccc2n1Cc1ccc(F)cc1 | inactive: -15% |
| Cc1c(-c2ccc(Cl)cc2)c(=O)oc2c(CN3CCOCC3)c(O)ccc12 | inactive: 0% |
| COC(=O)c1cccc(CN2C(=O)SC(Nc3ccc(Br)cc3)C2=O)c1 (configuration not stated) | inactive: -2.38% |
| Cc1ccc(NC(=O)CSc2nc3ccc(NC(=O)c4ccco4)cc3s2)c(C)c1 | inactive: -2.5% |
| CSc1cccc(NC(=O)C(c2ccccc2)N2Cc3ccccc3C2=O)c1 (configuration not stated) | inactive: -0.0361% |
| CNC(=O)c1c(NC(=O)c2ccc(S(=O)(=O)N3CCCC(C)C3)cc2)sc2c1CCC2 (configuration not stated) | inactive: -3.31% |
| CCCCOc1ccc(C(=O)Nc2onc3c2CCCC3)cc1 | inactive: -7.79% |
| COC(=O)C1CCN(C(c2ccccc2Cl)c2sc3nc(-c4ccco4)nn3c2O)CC1 (configuration not stated) | inactive: -1.2% |
| CCOC(=O)CN1C(C(=O)c2ccccc2)=C(OC(=O)c2ccccc2)c2ccccc2S1(=O)=O | inactive: -12.7% |
| Cc1cc(C)cc(NC(=O)Nc2cccs2)c1 | inactive: 1.38% |
| Cc1ccc(NC(=O)C2CCCN(S(=O)(=O)c3ccc(F)cc3)C2)cc1 (configuration not stated) | inactive: 2.36% |
| Cc1ccc(C)c(NC(=O)Cn2cnc3nc4c(cc3c2=O)CCCC4)c1 | inactive: 3.04% |
| COc1ccccc1N1CCN(C(=O)C2CCCN(S(=O)(=O)c3ccc4c(c3)oc(=O)n4C)C2)CC1 (configuration not stated) | inactive: -13.2% |

| SMILES | activity change, negative = inhibition |
| --- | --- |
| CCOC(=O)c1cccc(NC(=O)c2ccc3snnc3c2)c1 | inactive: -3.52% |
| CCc1ccc(-n2c(N3CCN(c4cccc(C)c4C)CC3)nc3ccccc3c2=O)cc1 | inactive: -3.33% |
| COC(=O)c1sccc1S(=O)(=O)N(CC(=O)NCc1ccccc1)c1ccc(C)cc1 | inactive: -2.99% |
| Cc1ccc(Nc2nc(N)nc(N)c2S(=O)(=O)c2ccccc2)cc1 | inactive: -22.4% |
| COc1ccccc1C(=O)Nc1nc(-c2ccc(Br)cc2)ns1 | inactive: -4.11% |
| Cc1nc2ccn(Cc3cccnc3)c(=O)c2cc1C(=O)N1CCN(c2ccccc2)CC1 | inactive: 8.35% |
| CC(=O)Nc1ccccc1-c1nc2ccccc2n(C(C)C(=O)c2ccc(C)c(C)c2)c1=O (configuration not stated) | inactive: -20.3% |
| CCOc1ccc(CC(=O)NC2CC(=O)N(c3ccc4c(c3)OCCO4)C2)cc1 (configuration not stated) | inactive: -0.708% |
| CCN(c1ccccc1)S(=O)(=O)c1nnc(NC(=O)COc2ccccc2F)s1 | inactive: -27.3% |
| COc1cc(C2C(=O)N(C3CCC(C)CC3)CC(=O)N2CCc2ccc(Cl)cc2)ccc1OC(C)C (configuration not stated) | inactive: 2.01% |
| Cc1ccc(NC(=O)CN(C)S(=O)(=O)c2cccc3nsnc23)c(C)c1 | inactive: 0.686% |
| COc1ccc(-c2[nH]ncc2C(=O)NCc2ccccc2OC)cc1 | inactive: -16.9% |
| Cc1ccc(Nc2cc(-c3ccccc3)nc(C)n2)cc1 | inactive: -2.1% |
| CCSC1=NC2(CCN(C(=O)NC3CCCCC3)CC2)N=C1c1ccc(C)c(C)c1 | inactive: 1.88% |
| Cc1ccc(NC(=O)[C@H](Cc2ccccc2)N2Cc3ccccc3C2=O)cc1 | inactive: -0.387% |
| Cc1noc(C)c1S(=O)(=O)NCCc1csc2nc(-c3ccc(F)cc3)nn12 | inactive: 3.38% |
| CCOC(=O)c1c(NC(=O)c2cc3ccccc3c(=O)o2)sc2c1CCCC2 | inactive: 3.86% |
| CCCN(CCC)CCNC(=O)c1cc(Sc2ccc(Cl)cc2)nc2ccccc12 | inactive: -24.1% |
| CCc1cccc(NC(=O)c2ccc3c(=O)n4nc(Nc5ccccc5OC)sc4nc3c2)c1 | inactive: -8.81% |
| COc1nc(Oc2ccc(=O)n(-c3ccccc3)n2)nc(N(C)C)n1 | inactive: 7.01% |
| COc1ccc(OC)c(NC(=O)CCc2c(C)nc3c(-c4ccccc4)c(C)nn3c2C)c1 | inactive: -9.38% |
| Cc1cccc(CSCCNC(=O)CN(c2ccccc2)S(=O)(=O)N(C)C)c1 | inactive: 1.86% |
| Cc1ccc(S(=O)(=O)c2cn(CC(=O)Nc3ccc4c(c3)OCO4)c3ccc(F)cc3c2=O)cc1 | inactive: 0.0745% |
